In all, about 33,000 sequences were measured (“E-score (-0.5 to 0.5)”: median about -0.041, highest 2% from about 0.37 on). Some of the results follow.
Each sequence was assayed against T1, Ecm22 (UniProt Q05958) (assay: PBM E-score (8-mer binding enrichment) (E-score (-0.5 to 0.5)); higher = stronger / more preferred TF binding; most listed sequences are background and not binding sites). Conditions: protein concentration: 200 nM; construct: GST-full length.
T1 sequence: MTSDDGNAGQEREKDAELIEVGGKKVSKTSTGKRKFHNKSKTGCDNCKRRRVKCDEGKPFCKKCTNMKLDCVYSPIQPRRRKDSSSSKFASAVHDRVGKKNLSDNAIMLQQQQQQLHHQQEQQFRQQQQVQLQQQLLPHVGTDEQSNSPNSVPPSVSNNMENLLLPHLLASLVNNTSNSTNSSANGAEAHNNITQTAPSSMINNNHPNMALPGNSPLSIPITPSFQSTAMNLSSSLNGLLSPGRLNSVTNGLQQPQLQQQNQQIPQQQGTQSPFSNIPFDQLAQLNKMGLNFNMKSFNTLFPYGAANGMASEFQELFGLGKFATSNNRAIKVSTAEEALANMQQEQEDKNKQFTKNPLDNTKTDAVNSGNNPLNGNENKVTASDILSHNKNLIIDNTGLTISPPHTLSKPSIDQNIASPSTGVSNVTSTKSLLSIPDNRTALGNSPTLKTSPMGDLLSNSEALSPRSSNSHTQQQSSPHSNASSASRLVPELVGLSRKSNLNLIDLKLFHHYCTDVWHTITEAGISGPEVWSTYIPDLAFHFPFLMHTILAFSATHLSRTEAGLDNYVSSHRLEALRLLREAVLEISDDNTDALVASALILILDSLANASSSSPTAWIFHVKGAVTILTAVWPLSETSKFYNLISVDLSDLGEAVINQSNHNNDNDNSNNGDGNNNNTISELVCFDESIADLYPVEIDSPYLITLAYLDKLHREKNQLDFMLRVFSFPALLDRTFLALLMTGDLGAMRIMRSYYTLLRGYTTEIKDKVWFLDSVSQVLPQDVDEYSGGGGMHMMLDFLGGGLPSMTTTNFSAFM
How it was run: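 Each ungapped eight-base word and its reverse complement, pooled, received an E-score from the Universal PBM Analysis Suite. Underlying scans, normalised with masliner, recorded fluorescent anti-GST bound to GST-tagged yeast transcription factors. These were applied at about 100-200 nM to universal all-10-mer Agilent arrays double-stranded by primer extension.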

Sequence	PBM E-score
CAGACGAC	0.05
AAGTCACA	-0.196
CGCCGTTA	0.196
GGTTCCCA	-0.173
GGAATGAC	-0.162
ATTGGAGC	-0.141
AAATCAGT	0.0103
GTCACGAC	0.0452
ATAACCAC	0.0979
CCCAACAG	-0.172
ACCGCAGG	-0.0892
AACTTCTT	0.0135
CATGTGAC	-0.129
AACATAGA	-0.137
ACGCGAAT	0.246
GGACTAGA	-0.2
CGCAAGCA	-0.0331
CGCCCTCA	-0.154
ACATGTAT	0.0328
CTTAACCA	-0.201
ATGAAGGC	-0.102
AGATGACC	-0.239
TAAACGAA	0.488
TATTAACA	0.171
AGAAGTGG	-0.134

Sequence	PBM E-score
CACGATGG	0.0647
GCACCTAA	-0.0119
AGTCGGTG	-0.16
AATGCGAG	0.275
ACCATTAT	-0.138
CGCGTCGC	0.168
AAGGTAAA	0.117
TGACATAA	-0.113
AACAATCT	-0.127
ACAGGCTG	-0.306
ACGGGAAA	0.116
GACAAGGC	-0.084
AATAACTG	0.0815
GCTCGAGC	0.0152
CAGACTGA	0.00847
CTATTTCC	0.0563
CACACCCC	-0.25
ACATACGT	0.177
ATAGGTCA	0.135
AGGGGGTG	-0.208
CGCCTGAA	0.118
ACAATGAC	-0.162
GAATTTAC	0.207
ACCCAAAA	0.0343
GGTACGTA	0.319

Sequence	PBM E-score
CAAGGCAA	-0.203
TATATACA	0.101
ACCCGGCG	-0.0133
AGCAGACT	-0.0102
CCATATCC	-0.0494
AGGGCGAT	-0.0025
GCCTTCGC	0.0296
CGTGCGAA	0.276
TAATGAAA	0.0326
TACTTACA	0.101
CAGGCGAG	-0.207
AGGACATC	-0.0323
CGCGCAGA	0.197
ATGGTGGG	-0.251
GTTCAAGA	0.154
ATCGGAAA	0.127
GCCTACCC	-0.183
CCGCCGTC	-0.141
GCCCTACC	-0.0928
ATGGAGCA	-0.12
AACTCCTC	0.00963
GCGGCATA	0.029
CGACTTGA	0.0591
TGACAGCA	0.0178
CACACTAG	-0.0563

Sequence	PBM E-score
ACGACGTG	0.372
ACGAATGA	0.298
GGCTACAA	0.042
AATCGGAC	0.0723
CCACTGTA	-0.00352
GGCGTGAA	0.0712
ACTGAGCG	-0.0588
AAGTCCAC	-0.278
GCGTATCA	0.114
CAGCGGCA	-0.168
ACCAGTGA	-0.129
GAATTGAA	-0.0812
CTAGCCTC	-0.0983
AGCGGCTG	-0.159
GAAAGGGA	-0.0539
GCACTAAC	0.0508
AGCACGAC	-0.012
AATTTTGT	0.0242
ATCCTGGC	-0.0963
AATTCAGC	-0.0163
CACAGTCC	-0.24
CTGTGCTC	0.062
GAACTCAA	-0.00037
AGTATGCG	0.2
CCCCGCCA	0.0635

Sequence	PBM E-score
AGGCGTCG	0.165
CAGTTATG	-0.216
AGACTTAT	-0.104
GCACCCGA	0.191
AAATAATA	0.104
AACGTGCT	-0.0499
AGCGGTTG	-0.0954
ACCAACGG	-0.0668
CGGCAGAC	-0.0265
ATGGTGCC	-0.132
AGCAGGGG	-0.223
GGACCCGA	0.136
GTGACAAA	-0.018
TAAATACA	0.077
TCGTGAAA	0.247
TGTGCTAA	-0.0625
GGACTTTA	-0.123
AACTCTCG	0.145
AACCTTAG	-0.292
CCGGCGCG	0.021
ATCATCAG	-0.086
TATGTAAA	0.0988
AGTATCAA	-0.0773
CGGTTGGA	-0.079
AACAAGCA	-0.104

Sequence	PBM E-score
CCGCTTCG	0.0334
ATTGCAGG	-0.00797
TTTACAAA	0.0649
ATTGAAAT	0.111
AGATGGTG	-0.0816
AAACGTCA	0.0512
CCACTACG	0.0757
GGTGGGCA	-0.129
GAGACAGA	0.0492
ATTCGGTC	0.231
CAACGCGA	0.158
GAACGAGA	0.464
GTTGGCCA	-0.24
ACCGCGCA	0.0956
ACGGACGC	0.0414
CGTCAACC	-0.117
GATATTTA	0.0694
TAGTTGCA	-0.0797
CCACGACA	-0.0411
CAGGGAGG	-0.326
ACGCTGGA	0.126
CTGTTATC	-0.221
GCCGCAGC	-0.11
ACCTCATG	-0.2
GGAGAATA	0.0503

Sequence	PBM E-score
CGTGCGGC	-0.00073
CAGAAGCG	0.0896
GCGGGTGA	-0.233
GTTTTAAA	0.0416
GTGTCCAA	-0.0564
GTAATTAC	0.0498
ACCGTAGC	0.163
AAGGGGAG	-0.265
CGGGTAGA	0.155
CATCACCA	-0.143
ATTTGCGA	0.279
CCTCCACG	-0.207
CTGCAGTA	-0.184
ACCTTTTC	-0.0752
TCTAAAAA	-0.119
TGAAAGAA	-0.0162
CCCGCCGC	0.0558
GTTTGACA	0.188
CCATGTTC	-0.0183
AGATCCGG	-0.0497
GACGCGAA	0.0723
AAAAGAAT	0.0163
ACGCACGT	0.15
ACGATAGA	0.257
ACATAACG	0.137

Sequence	PBM E-score
CCTTTATA	-0.125
CCCCGTGC	0.00973
TACGACAA	0.455
CGCGTACC	0.255
ACAGGTAT	0.136
AGAAGATG	-0.0148
ACCACTCC	-0.156
CTACAGTC	-0.0606
ATCGCGGA	-0.0158
GTGCGAAC	0.228
AGCCTTTA	-0.0987
AGAATGTA	-0.0174
GGTTGCAA	0.0115
CCCGAACA	-0.0699
CGAAATTC	0.0905
AAGTACCT	-0.0784
ATGCTGGC	-0.254
ACGATCAC	0.182
ATTGGTTA	-0.0128
AATAGCCC	-0.234
AACTGCTT	-0.169
CGGAAATA	0.15
TACGCGGA	0.21
ACGCCGCG	0.093
CCCTAGAA	0.0176

Sequence	PBM E-score
ACACGTAT	0.254
CAGAACGG	0.075
CGTCCCGA	0.0631
CTACCGAC	0.0524
ATTTTGAC	-0.0484
AAAACGGT	-0.0632
GCCCAGCC	-0.171
GACTATAA	-0.164
AACCACCC	-0.173
ACTGATCC	-0.11
AAACAAAT	0.137
GCAAAACC	-0.142
CTGAAACC	-0.173
AATCACAG	0.0551
CAATTACG	0.0313
AGCATACT	0.0121
ATTTGATA	0.157
AGATCTAG	-0.225
CCATACTA	-0.0572

— the supplement of paper PMC3334620
